In article PMC7819943, “Rice protein-binding microarrays: a tool to detect cis-acting elements near promoter regions in rice”:
Some of the results follow.

Molecular target: T1, OsWOX13 (Oryza sativa, UniProt Q5QMM3 1-267)
T1 sequence: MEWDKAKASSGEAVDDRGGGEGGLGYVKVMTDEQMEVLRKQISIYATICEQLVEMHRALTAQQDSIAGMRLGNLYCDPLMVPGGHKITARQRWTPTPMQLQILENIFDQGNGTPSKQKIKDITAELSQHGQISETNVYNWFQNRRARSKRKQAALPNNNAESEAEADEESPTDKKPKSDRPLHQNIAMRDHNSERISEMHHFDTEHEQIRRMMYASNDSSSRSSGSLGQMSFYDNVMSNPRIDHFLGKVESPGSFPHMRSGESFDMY
Test: protein-binding microarray (RPBM); PBS, 2% BSA, 51.3 ng/ul salmon testes DNA, 50 uM zinc acetate, 200 nM TF, 25 C, 1 h; high values mean tight binding
Conditions: protein: recombinant; tags: N-terminal polyhistidine and DsRed monomer fusion (pET32a); label: CyDye5-dUTP incorporated in the synthesized complementary strand; 3' TTTTT single-stranded linker to array surface; dsDNA, one strand shown
How it was run: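 Per-feature fluorescence intensity (arbitrary units), read on an Axon 4000B scanner, is the binding signal. Transcription factors carrying an N-terminal polyhistidine tag and DsRed fusion were expressed in E. coli BL21-CodonPlus and purified on Ni–NTA. A custom Agilent array, made double-stranded by primer extension with Cy5-dUTP and blocked with 2% BSA, was incubated with 200 nM protein in PBS, 2% BSA, salmon testes DNA and 50 µM zinc acetate at 25 °C for 1 h and then washed.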

Sequence | binding signal
AGCCTAATTAATTCATCATTAGTAAATATTTACTATAACACGGAGTCACCTAGTGCAG | 20000 fluorescence intensity (a.u.)
CTGTAGCTGATTATAAATCTATAGTGCTCTTATCTCTCATCGGAGTCACCTAGTGCAG | 8710 fluorescence intensity (a.u.)
CGCGTGTGGTGATTGGCTGGCTCTTTGCCTCATCATGGGCCGGAGTCACCTAGTGCAG | 34100 fluorescence intensity (a.u.)
TAATTTTAAATTGTAAAATAATAGAGCTAACAAGTTGTGCCGGAGTCACCTAGTGCAG | 7000 fluorescence intensity (a.u.)
TATAATTATCCTCTTCCGCAGACCATGTAAGAGGAAAACACGGAGTCACCTAGTGCAG | 5620 fluorescence intensity (a.u.)
GCCGCATCATCAGCCAATTAATCCCCTAACCATCCCCTTTCGGAGTCACCTAGTGCAG | 7460 fluorescence intensity (a.u.)
GGTAAATTATTATTCTGGGATAATTCGAGCGGCAAGCTCACGGAGTCACCTAGTGCAG | 25800 fluorescence intensity (a.u.)
CCTAATCTTGTGAGTAATCAAGCCTATTTCATTTGATATACGGAGTCACCTAGTGCAG | 3260 fluorescence intensity (a.u.)
TTTCTATTTCATTTCTAATTTAATTCATCGGATTGAATCTCGGAGTCACCTAGTGCAG | 4250 fluorescence intensity (a.u.)
GCCCAAATTAGCAGCTGCTTTGGTGAAACTTTGTGTATAACGGAGTCACCTAGTGCAG | 4800 fluorescence intensity (a.u.)
CTTGATTACGGCCATTAGGGCTTAATAATGCGGATTAGTACGGAGTCACCTAGTGCAG | 33600 fluorescence intensity (a.u.)
GTCTGAAGTGAAAATTGAATGGAAAATTAAAGTTGGTGATCGGAGTCACCTAGTGCAG | 5380 fluorescence intensity (a.u.)
ATTATCCATTCAATCAAAACAAGCAGGACTACTAGAAAGCCGGAGTCACCTAGTGCAG | 8940 fluorescence intensity (a.u.)
CACATTAGATTAAGTGATGAGATGGAGGAGAGAAGTAAGGCGGAGTCACCTAGTGCAG | 6740 fluorescence intensity (a.u.)
ATTTGATTTTCTGTCTTTTCTTCAACTCGATTTTGTTAAACGGAGTCACCTAGTGCAG | 8770 fluorescence intensity (a.u.)
GGTAGTACTTAATTAATCACGCGCTAATAGACCGCTCTGTCGGAGTCACCTAGTGCAG | 22600 fluorescence intensity (a.u.)
TTAACTATCAAATGACTTATAATTTAAAGCGAAGGAAGTACGGAGTCACCTAGTGCAG | 5120 fluorescence intensity (a.u.)
TTAATTATACAGCCCGTTTTCTTCACCTTATTATACTCGGCGGAGTCACCTAGTGCAG | 6110 fluorescence intensity (a.u.)
CAAAATTACAGATTTAAGAAAACTATAGATTTAGTGTATTCGGAGTCACCTAGTGCAG | 11000 fluorescence intensity (a.u.)
TATTTTGTCTTGGTGATTGACTTGACTTGTAACCCCTAAGCGGAGTCACCTAGTGCAG | 26600 fluorescence intensity (a.u.)
TCAGATTGCTACAATAATATATAGTCTATGATTTTATCAACGGAGTCACCTAGTGCAG | 9410 fluorescence intensity (a.u.)

Sequence | binding signal
TGCAAATTGTTTGCAATTTGACAATAGAAATACTTGATCACGGAGTCACCTAGTGCAG | 10700 fluorescence intensity (a.u.)
TTTGTCTCTACAATTGCTAATTATATTGCAGATTAGTGTACGGAGTCACCTAGTGCAG | 4410 fluorescence intensity (a.u.)
CGGGTCGATTGATTGCTAGGCGAAATTACCAAGTTACCCTCGGAGTCACCTAGTGCAG | 48200 fluorescence intensity (a.u.)
GCTCTAATCATATGGTTAATTAAAATGTGGCACACATGGTCGGAGTCACCTAGTGCAG | 39900 fluorescence intensity (a.u.)
TTGATTGTTTCATGTAAAATTTAAATATATTAGTTATATACGGAGTCACCTAGTGCAG | 5700 fluorescence intensity (a.u.)
AAAATCACCATCAATCCCCACATGTGAAGTGAGTGATAGACGGAGTCACCTAGTGCAG | 17100 fluorescence intensity (a.u.)
AAATAACAAATGGATCAATTTGCCAGCAATCTAGGCCCATCGGAGTCACCTAGTGCAG | 10600 fluorescence intensity (a.u.)
ATCTGACGAGAGTAAATTAATTGGACCGAATTAATCTGAACGGAGTCACCTAGTGCAG | 36000 fluorescence intensity (a.u.)
AAAGCTAATGTTTAATTAGTCCTACACTAATAATCCTCCTCGGAGTCACCTAGTGCAG | 3440 fluorescence intensity (a.u.)
GCATCATCTTAATTGACTGTAGTAGTACTAGTACGTAATGCGGAGTCACCTAGTGCAG | 35200 fluorescence intensity (a.u.)
CAAGATGAATCTTTTAAGCCTAATTGCGTCATGATTTGACCGGAGTCACCTAGTGCAG | 4180 fluorescence intensity (a.u.)
TACACTAATTACAAAACACATTCCATATCCTTGGACTAATCGGAGTCACCTAGTGCAG | 9720 fluorescence intensity (a.u.)
TCTTTTGACCAATTAAGTTCAGTTACCAGAGAGGTTGATTCGGAGTCACCTAGTGCAG | 5360 fluorescence intensity (a.u.)
CCACATCATCTAAATTGTTTCTTTATCCCTATGATAGTTGCGGAGTCACCTAGTGCAG | 4360 fluorescence intensity (a.u.)
TCAGACTTAATCAAACTGTCAAGAACATACATAAGCACATCGGAGTCACCTAGTGCAG | 4090 fluorescence intensity (a.u.)
TAAAATTACATATGTAATTATAGTGTAAGTACGATGTAATCGGAGTCACCTAGTGCAG | 25500 fluorescence intensity (a.u.)
ATTAATAGAATCAATACAAGGCCATTTATCATGATAGACACGGAGTCACCTAGTGCAG | 7760 fluorescence intensity (a.u.)
TTAATTAAATTGGACCACCATAACCTAAAATCCTAGCTACCGGAGTCACCTAGTGCAG | 44800 fluorescence intensity (a.u.)
AATAAAATTAGAAACCATAAATTAGGGCCCTCTTCGACATCGGAGTCACCTAGTGCAG | 12900 fluorescence intensity (a.u.)
GAAAGTGATTCGGATAATTTCCGACCGACCGGACCATTTTCGGAGTCACCTAGTGCAG | 3370 fluorescence intensity (a.u.)
AACTAATGAATTGCTTTGAAAATGACCTGCATATAGGAAACGGAGTCACCTAGTGCAG | 4500 fluorescence intensity (a.u.)

Sequence | binding signal
AATAATTGTATTGGGAGTAAATAAAATTGGATATAGTTGCCGGAGTCACCTAGTGCAG | 19900 fluorescence intensity (a.u.)
TCGCTGATGAAAATGATGAGCATGGTGAGGGGAAGAAGGGCGGAGTCACCTAGTGCAG | 8170 fluorescence intensity (a.u.)
TCCCGTCTCGCTTGATTGGTTTCTGACAAGAACGAGATTACGGAGTCACCTAGTGCAG | 16500 fluorescence intensity (a.u.)
ACACCACATCAATCAAGCTAAACAAACACAACACATATCCCGGAGTCACCTAGTGCAG | 23800 fluorescence intensity (a.u.)
AAGGTAATTAACTAACCGGGTTAATTTTATTCGTTAGATTCGGAGTCACCTAGTGCAG | 28400 fluorescence intensity (a.u.)
AATTGATTATTCCTAACAACATTCCGCGGATTAATTTTCTCGGAGTCACCTAGTGCAG | 15500 fluorescence intensity (a.u.)
GAATTATAATTATTTTGGAACGGAGATAGCAGTTAATTTGCGGAGTCACCTAGTGCAG | 6240 fluorescence intensity (a.u.)
TGTAACAGATAAACTTCTTGGGCCAGGCCTTCGAGCACGCCGGAGTCACCTAGTGCAG | 7360 fluorescence intensity (a.u.)
AGAATTAGTATTAATTATATTTAGTGGGAATAAATTTTGTCGGAGTCACCTAGTGCAG | 15900 fluorescence intensity (a.u.)
GTTTATTGATTACGATTGCAAGCTCTATACAAGAAAGCAGCGGAGTCACCTAGTGCAG | 42200 fluorescence intensity (a.u.)
AATAATTACTTAAATTTTGAATAAGACGAACGGTCAAACACGGAGTCACCTAGTGCAG | 28300 fluorescence intensity (a.u.)
GGTATGATTAATCACACACACAAACGAGAAGTCCAATTCGCGGAGTCACCTAGTGCAG | 34000 fluorescence intensity (a.u.)
GCATTGTTAACTTGATTACTCTGTCCGTTTCATATTGTACCGGAGTCACCTAGTGCAG | 10600 fluorescence intensity (a.u.)
TTTGTTTTGCCCAGTTATCATGATTGTCAGTATCCGTTTCCGGAGTCACCTAGTGCAG | 4880 fluorescence intensity (a.u.)
CCCAAACCAGATATTAGACATAATTTTCATAATCTCTACACGGAGTCACCTAGTGCAG | 4010 fluorescence intensity (a.u.)
CCACTAACAGTCTAACAACATGATAAGGCCTCCGCAACCACGGAGTCACCTAGTGCAG | 3920 fluorescence intensity (a.u.)
TAAATAGATGATAAGTAGAATTACTTATCATTGGTCTGTGCGGAGTCACCTAGTGCAG | 9740 fluorescence intensity (a.u.)
TATAGTTACAATATAATTACAATACAATTATACTAGTGTTCGGAGTCACCTAGTGCAG | 4550 fluorescence intensity (a.u.)
GAAGAAGATTGGGTTGCTAACACGTGGGTCTCACGCTGACCGGAGTCACCTAGTGCAG | 6420 fluorescence intensity (a.u.)
CTTGAAATTTAAATTTGACTTGTAGCTTGAAGTAAATGTCCGGAGTCACCTAGTGCAG | 30000 fluorescence intensity (a.u.)
AGGTGACTGTGGTGACTTTATCGATCTTAATATACATCGGCGGAGTCACCTAGTGCAG | 4620 fluorescence intensity (a.u.)

Sequence | binding signal
TGTTTTAAAATTAATCATTTGAGCTATGAATCTAGTCATCCGGAGTCACCTAGTGCAG | 3540 fluorescence intensity (a.u.)
GGCTTTAATTGGTTGATCTAGTAGCTTTTCCTGAACAAATCGGAGTCACCTAGTGCAG | 27900 fluorescence intensity (a.u.)
TGCACCTGTTATTTTCCCGTTCTCTTGTTCTTTCCATTTGCGGAGTCACCTAGTGCAG | 3490 fluorescence intensity (a.u.)
CTGATAGATATAGAATAGCGATTGTTTATATTTTAAAATGCGGAGTCACCTAGTGCAG | 18000 fluorescence intensity (a.u.)
GAAAGATTTGATATACAGCACATACCAATAGTTCGGTATACGGAGTCACCTAGTGCAG | 5020 fluorescence intensity (a.u.)
TGTGAATTGATCTTGATAACATCTGCTACACTGTAAATAACGGAGTCACCTAGTGCAG | 6570 fluorescence intensity (a.u.)
ATTATACAGATTACGTGTAAATTGCGAGACGAATCTTTCACGGAGTCACCTAGTGCAG | 7100 fluorescence intensity (a.u.)
CTGATTTTGATAGTTAAAGGGTGAACAATAGATCCTTTCTCGGAGTCACCTAGTGCAG | 5690 fluorescence intensity (a.u.)
CAGGTGCTTTGGTTTGATTGCTACGTCGTCTTAATCTACACGGAGTCACCTAGTGCAG | 4150 fluorescence intensity (a.u.)
TTGACAAAACTGAGATGGTTGTATGTGTTTTCTGCTAGGTCGGAGTCACCTAGTGCAG | 3410 fluorescence intensity (a.u.)
CAGGTGCTCTAACTACTATGTAATTGAACCACTGACATGTCGGAGTCACCTAGTGCAG | 5510 fluorescence intensity (a.u.)
CATGACCAAACTATCACAAAACTACAAATTTAACTAGGTTCGGAGTCACCTAGTGCAG | 3370 fluorescence intensity (a.u.)
AAAATTAGTTAACGGTAATTATGCATACAACTTGCATTGTCGGAGTCACCTAGTGCAG | 31700 fluorescence intensity (a.u.)
TAGGTTGATAATTATTTGAAGGCACCAACAAATGAGTTAGCGGAGTCACCTAGTGCAG | 6350 fluorescence intensity (a.u.)
CCAAAATTGCATTCGTGAGTCGTGACCTGACCTGACCTGACGGAGTCACCTAGTGCAG | 5260 fluorescence intensity (a.u.)
TAGATTTAATTACAACGAATGCAACAGTGCAATCAGATTGCGGAGTCACCTAGTGCAG | 15400 fluorescence intensity (a.u.)
TGCAGAAGTTGTTTGATTGTCTATCAAACGTTGCCACGCCCGGAGTCACCTAGTGCAG | 11000 fluorescence intensity (a.u.)
GATGATGATGATGATGATGATGAGAAGGTGGTGCCGCCGCCGGAGTCACCTAGTGCAG | 27800 fluorescence intensity (a.u.)
GCCTAATTAATCCATGATTAGCTTATGTGATGCTACATTACGGAGTCACCTAGTGCAG | 36300 fluorescence intensity (a.u.)
GAATAATATGGACAAATTGATCTTTCTCTGTCCCTACTCACGGAGTCACCTAGTGCAG | 10700 fluorescence intensity (a.u.)
AAGAAAATTATTTGCTGCTACTATTCTTCACCTACAGTTGCGGAGTCACCTAGTGCAG | 3920 fluorescence intensity (a.u.)
